The assay addresses T1, outer-membrane usher FimD (Escherichia coli, UniProt P30130 46-878).
T1 sequence: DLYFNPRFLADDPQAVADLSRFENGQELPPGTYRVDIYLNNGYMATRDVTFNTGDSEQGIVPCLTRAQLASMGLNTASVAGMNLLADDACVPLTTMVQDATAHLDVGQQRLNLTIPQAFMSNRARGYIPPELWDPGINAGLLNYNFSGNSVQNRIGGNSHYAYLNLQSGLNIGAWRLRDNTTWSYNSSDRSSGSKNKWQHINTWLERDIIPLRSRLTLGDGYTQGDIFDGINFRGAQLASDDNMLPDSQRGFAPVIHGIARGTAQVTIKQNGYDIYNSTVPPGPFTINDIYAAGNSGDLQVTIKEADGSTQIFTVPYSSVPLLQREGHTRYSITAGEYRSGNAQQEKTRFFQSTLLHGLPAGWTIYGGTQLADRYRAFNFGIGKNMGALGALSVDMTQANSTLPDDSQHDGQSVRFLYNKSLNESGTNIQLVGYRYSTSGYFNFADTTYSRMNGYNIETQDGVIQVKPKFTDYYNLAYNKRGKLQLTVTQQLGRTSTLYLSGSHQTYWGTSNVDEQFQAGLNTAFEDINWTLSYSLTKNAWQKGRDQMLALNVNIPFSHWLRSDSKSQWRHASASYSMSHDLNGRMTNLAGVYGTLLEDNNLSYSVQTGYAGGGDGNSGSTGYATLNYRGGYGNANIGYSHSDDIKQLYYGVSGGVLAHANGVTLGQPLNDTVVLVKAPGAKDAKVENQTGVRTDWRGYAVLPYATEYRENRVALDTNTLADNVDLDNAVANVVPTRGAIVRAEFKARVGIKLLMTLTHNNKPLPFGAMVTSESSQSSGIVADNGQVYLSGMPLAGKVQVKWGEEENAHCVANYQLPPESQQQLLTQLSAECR
Put plainly: cryo-EM structure. The following applies: both partners purified.

B1: adhesin FimH (wild type) (natural protein)
chain: not shown
notes: also called FimHWT; tip adhesin
As for B1, the binding result is given as “binds”.
